Measured values from PubChem BioAssay (NCATS).
The inconclusive results got no clear call from the source; some entries with a clear call stand among them for comparison. For part of these data: Potencies of inconclusive entries are left out as doubtful fits. Calls of active or inactive are those of the source. Unless noted, the call rests on the fitted dose curve; in most records, active means well fitted curve in the direction sought with a large enough effect; inconclusive means small, poorly fitted or top-dose-only effect, or another doubt; inactive means no such curve, though single readings can be large; an effect the other way counts as inactive or inconclusive.

What was measured:
[1] = qHTS of pediatric cancer cell lines to identify multiple opportunities for drug repurposing: Primary screen for Saos-2 cells (AID 1347097); details: Saos-2 viability, CellTiter-Glo ATP luminescence, 48 h; activity change, negative = cytotoxic: at 46 µM (top of the series); further: potency means the concentration at half of the fitted maximal effect; nearly all actives have a fitted effect of over 40% in size
Method in brief: (§1)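 500-1,000 cells/well; 5 h pre-incubation 37 °C/5% CO2; compound pinned; 48 h; CellTiter-Glo, 15 min RT; luminescence. MIPE 11-pt from 0.78 nM, NPC 8-pt from 0.59 nM final. Bortezomib 2.3 µM final as positive control.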

[2] = Primary qHTS for small molecule stabilizers of the endoplasmic reticulum resident proteome: Secreted ER Calcium Modulated Protein (SERCaMP) assay (AID 1508630); details: SH-SY5Y GLuc-SERCaMP (Gaussia luciferase released on ER calcium loss) secretion, thapsigargin, luminescence; activity change, negative = inhibition: at 38.4 µM (top of the series) unless noted; further: potency means the concentration at half of the fitted maximal effect; on activity change, negative = inhibition: on the % scale 0 is the no-effect control and ±100 the full control effect
Method in brief: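 The SH-SY5Y reporter protocol was run at 3 concentrations up to 38.3 uM (primary) or 11 concentrations (follow-up): 16 h compound, 100 nM thapsigargin for 4 h, then extracellular luciferase luminescence.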

[3] = A High-Content qHTS Against Drug Library for the Identification of Small Molecules that Inhibit DYT1 Early Onset Primary Dystonia-Associated Cell Pathology (AID 1645839; calls by dose curve; further: potency means the concentration at half of the fitted maximal effect)
Method in brief: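 Induced EGFP-delE TorsinA cells are imaged after 48 h of compound treatment. Punctate fusion-protein distribution gives the %pathology value, while nuclei counts flag toxicity. Wild-type EGFP-hTOR1A cells define the normal pattern.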

[4] = biological target: Cytochrome P450 2D6 (Homo sapiens) (UniProt P10635); experiment: Cytochrome P450 family 2 subfamily D member 6 (CYP2D6) small molecule antagonists: luciferase biochemical (cell-free) qHTS assay (AID 1645840; active means well fitted curve in the direction sought with a large enough effect in the repeat runs; inconclusive means weak or mixed curves; inactive means no such curve, though single readings can be large; an effect the other way counts as inactive or inconclusive; further: nearly all actives have a fitted effect of over 55% in size; further: potency means the concentration at half of the fitted maximal effect; on activity change, negative = inhibition: on the % scale 0 is the no-effect control and ±100 the full control effect)
Chain of UniProt P10635 (P10635 whole entry, looked up): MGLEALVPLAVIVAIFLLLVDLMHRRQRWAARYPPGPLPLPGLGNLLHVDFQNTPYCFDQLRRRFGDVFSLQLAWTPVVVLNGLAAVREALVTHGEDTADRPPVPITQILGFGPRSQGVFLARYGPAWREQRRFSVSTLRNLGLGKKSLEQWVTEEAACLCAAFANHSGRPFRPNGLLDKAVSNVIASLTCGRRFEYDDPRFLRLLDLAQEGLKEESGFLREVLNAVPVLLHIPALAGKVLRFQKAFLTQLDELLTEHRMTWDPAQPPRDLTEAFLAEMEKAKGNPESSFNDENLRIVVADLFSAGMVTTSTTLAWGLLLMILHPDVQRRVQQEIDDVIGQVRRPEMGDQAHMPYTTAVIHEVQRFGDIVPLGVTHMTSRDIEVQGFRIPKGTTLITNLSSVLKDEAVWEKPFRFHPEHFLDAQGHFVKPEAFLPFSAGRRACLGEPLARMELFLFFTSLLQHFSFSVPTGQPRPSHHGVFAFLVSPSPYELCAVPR
Method in brief: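 P450-Glo CYP2D6 system: proluciferin substrate converted by enzyme to luciferin, read by luminescence proportional to activity. Enzyme-substrate mix with compound 10 min at room temperature, then NADPH regeneration 1 h before detection reagent.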

[5] = Primary qHTS for inhibitors of nuclear receptor binding SET domain protein 2 (NSD2) in an isogenic RCH-ACV NSD2 p.E1099K mutant (9B) (AID 1645876); details: activity change, negative = viability loss: at 44.9 µM (top of the series) unless noted; further: nearly all actives have a fitted effect of over 70% in size; further: potency means the concentration at half of the fitted maximal effect
[6] = Primary qHTS for inhibitors of nuclear receptor binding SET domain protein 2 (NSD2) in an RCH-ACV wild type WT cells (2C) (AID 1645877); details: activity change, negative = cell killing: at 44.9 µM (top of the series) unless noted; further: nearly all actives have a fitted effect of over 70% in size; further: potency means the concentration at half of the fitted maximal effect; on activity change, negative = cell killing: on the % scale 0 is the no-effect control and ±100 the full control effect
UISO = experiment: qHTS assay to identify novel small-molecules to repurpose for Merkel cell carcinoma treatment (AID 1296009); details: MCC and control cell lines, CellTiter-Glo viability, 72 h; series mostly up to 46 µM; further: nearly all actives have a fitted effect of over 60% in size; further: potency means the concentration at half of the fitted maximal effect
Method in brief: (§2)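 Luminescence from CellTiter-Glo, read 10 min after addition at room temperature, reported viability following a 72 hr, 37 degree celsius treatment with NPC or MIPE compounds in titration; values normalized to plate controls.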

WaGa = experiment: as above; details: MCC and control cell lines, CellTiter-Glo viability, 72 h; series mostly up to 46 µM
Method in brief: as §2

DIV17 = experiment: qHTS profiling for inhibitors of Plasmodium falciparum proliferation (AID 504749); further: nearly all actives have a fitted effect of over 60% in size; further: potency means the concentration at half of the fitted maximal effect;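 on activity, negative = inhibition: 0% = DMSO vehicle and full inhibition = artemisinin control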; details: P. falciparum in erythrocytes, SYBR Green DNA, 72 h; activity, negative = inhibition: at 28.7 µM (top of the series)
Method in brief: (§3)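 Fluorescence of SYBR Green-bound parasite DNA, read at 485/535 nm, served as the growth measure. Infected erythrocytes were cultured with compound 72 h; artemisinin (0.29 uM) and DMSO wells defined the normalization range.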

W2 = experiment: as above; details: P. falciparum in erythrocytes, SYBR Green DNA, 72 h; activity, negative = inhibition: at 28.7 µM (top of the series)
Method in brief: as §3

SKOV3 = experiment: Primary qHTS to identify gynecologic anti-cancer compounds using libraries of approved drugs and bioactive compounds (AID 1345084); details: Gynecologic cancer cell panel viability, ATPlite luminescence, 48 h; series mostly up to 57.5 µM; further: nearly all actives have a fitted effect of over 55% in size; further: potency means the concentration at half of the fitted maximal effect
Method in brief: (§4)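 Cytotoxicity screen measuring ATP content by luciferase luminescence. Each compound is applied at five concentrations for 48 h at 37 C with 5% CO2.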

[7] = qHTS of pediatric cancer cell lines to identify multiple opportunities for drug repurposing: Primary screen for A673 cells (AID 1347092); details: A673 Ewing sarcoma viability, CellTiter-Glo ATP luminescence, 48 h; activity change, negative = cytotoxic: at 46 µM (top of the series); further: on the % scale 0 is the no-effect control and ±100 the full control effect; nearly all actives have a fitted effect of over 45% in size
Method in brief: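 Cell viability of A673 measured by CellTiter-Glo ATP luminescence after 48 hours compound exposure. Dilution series spanned 0.78 nM to 46 µM (MIPE, 11-point) or 0.59 nM to 46 µM (NPC, 8-point); bortezomib 2.3 uM positive control.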

[8] = qHTS of pediatric cancer cell lines to identify multiple opportunities for drug repurposing: Primary screen for BT-37 cells (AID 1347094);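 further: plate controls were DMSO for no effect and bortezomib for full effect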
Method in brief: as §1

[9] = qHTS of pediatric cancer cell lines to identify multiple opportunities for drug repurposing: Primary screen for Rh41 cells (AID 1347108); further: nearly all actives have a fitted effect of over 70% in size; further: potency means the concentration at half of the fitted maximal effect;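 on activity change, negative = cytotoxic: luminescence drop marks cytotoxic hits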
Method in brief: as §1

[10] = qHTS of pediatric cancer cell lines to identify multiple opportunities for drug repurposing: Primary screen for SK-N-SH cells (AID 1347098); further: nearly all actives have a fitted effect of over 65% in size; further: potency means the concentration at half of the fitted maximal effect;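 on activity change, negative = cytotoxic: DMSO served as neutral control and bortezomib at 2.3 µM as positive control; on the % scale 0 is the no-effect control and ±100 the full control effect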
Method in brief: (§5)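 Cells (500-1,000/well) rested 5 h, then received compounds for 48 h; metabolically active cells were measured by CellTiter-Glo luminescence. Final concentrations spanned up to 46 µM (MIPE, 11-point) or 0.59 nM-46 µM (NPC, 8-point) in primary screens, 11-point in follow-ups.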

[11] = qHTS of pediatric cancer cell lines to identify multiple opportunities for drug repurposing: Primary screen for SK-N-MC cells (AID 1347093); details: SK-N-MC viability, CellTiter-Glo luminescence, 48 h; activity change, negative = cytotoxic: at 46 µM (top of the series);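 further: plate controls were DMSO neutral control for no effect and bortezomib for full effect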
Method in brief: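 Metabolically active cells were quantified by ATP-dependent luminescence (CellTiter-Glo, 15 min at room temperature) following 48 h treatment. Cells had been plated at 500-1,000 per well and settled for 5 h beforehand.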

CAOV3 = experiment: Primary qHTS to identify gynecologic anti-cancer compounds using libraries of approved drugs and bioactive compounds (AID 1345084); details: Gynecologic cancer cell panel viability, ATPlite luminescence, 48 h; series mostly up to 57.5 µM; further: nearly all actives have a fitted effect of over 55% in size; further: potency means the concentration at half of the fitted maximal effect
Method in brief: as §4

[12] = qHTS of pediatric cancer cell lines to identify multiple opportunities for drug repurposing: Primary screen for OHS-50 cells (AID 1347103); details: OHS-50 osteosarcoma viability, CellTiter-Glo luminescence, 48 h; activity change, negative = cytotoxic: at 57.3 µM (top of the series); further: nearly all actives have a fitted effect of over 40% in size; further: potency means the concentration at half of the fitted maximal effect;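 on activity change, negative = cytotoxic: plate controls were DMSO neutral control for no effect and bortezomib positive control for full effect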
Method in brief: as §5

[13] = Drug repurposing screens with cells derived from glioblastoma tumor samples (AID 1345199); details: GBM patient neurospheres viability, ATP luminescence, 48 h; Potency: tumour line A unless noted; activity, negative = cell killing: at 46 µM (top of the series), tumour line A unless noted; further: potency means the concentration at half of the fitted maximal effect; nearly all actives have a fitted effect of over 40% in size
Method in brief: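 Primary testing used CD133+ neurospheres from four GBM patients, seven concentrations, 48 h exposure and ATP-based viability; confirmation added three slower-growing patient lines.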
Tags describe the fitted curve by direction and shape.

## CC1(COc2ccc(CC3SC(=O)NC3=O)cc2)CCCCC1 (configuration not stated)
[1]
  Potency: inconclusive [cytotoxic, single point]
[2]
  Potency: inactive
[3]
  Potency: inconclusive [inhibitor, single point]
[4]
  Potency: inconclusive [inhibitor, single point]
[5]
  Potency: inconclusive [inhibitor, single point]
[6]
  Potency: inconclusive [inhibitor, single point]
UISO
  Potency: inconclusive [inhibitor, partial curve, poor fit]
WaGa
  Potency: inconclusive [inhibitor, single point]
DIV17
  Potency: inconclusive [inhibitor, partial curve, poor fit]
W2
  Potency: inactive

## CC1=C(C(=O)O)N2C(=O)[C@@H](NC(=O)[C@H](N)c3ccccc3)[C@H]2SC1
UISO
  Potency: inactive
WaGa
  Potency: inactive
SKOV3
  Potency: inactive
DIV17
  Potency: inactive

## CC1(C)CO[C@@H](CC(=O)O)CN1
[7]
  Potency: inactive
[8]
  Potency: inactive
[9]
  Potency: inactive
[2]
  Potency: inconclusive [inhibitor, full curve, poor fit]
[6]
  Potency: inactive
UISO
  Potency: inactive
WaGa
  Potency: inactive
W2
  Potency: inactive

## CCCCCCCCCCC(CO)CCCCCCCC (configuration not stated)
[10]
  Potency: inactive
[2]
  Potency: inconclusive [inhibitor, partial curve, poor fit]
UISO
  Potency: inactive
DIV17
  Potency: inconclusive [inhibitor, single point]
W2
  Potency: inconclusive [inhibitor, single point]

## CC(=O)Nc1ccc(OCC(O)CNC(C)C)cc1 (configuration not stated)
[11]
  activity change, negative = cytotoxic: inconclusive: -30% [cytotoxic]
[10]
  Potency: inconclusive [cytotoxic, single point]
[9]
  Potency: inconclusive [cytotoxic, single point]
[4]
  Potency: inactive
UISO
  Potency: inconclusive [inhibitor, single point]
CAOV3
  Potency: inactive

## OCC(O)CS (configuration not stated)
[12]
  Potency: inactive
[9]
  Potency: inactive
[2]
  activity change, negative = inhibition: inconclusive: -32.8% [inhibitor]
[5]
  Potency: inactive
UISO
  Potency: inactive
W2
  Potency: inconclusive [inhibitor, full curve]

## CNC1(C)C2CCC(C2)C1(C)C (configuration not stated)
[8]
  Potency: inactive
[1]
  Potency: inconclusive [cytotoxic, partial curve, poor fit]
[2]
  Potency: inconclusive [inhibitor, single point]
[3]
  Potency: inactive
[6]
  Potency: inactive
UISO
  Potency: inactive
SKOV3
  Potency: inconclusive [rising, single point]
[13]
  Potency: inconclusive [inhibitor, partial curve, poor fit]
W2
  Potency: inconclusive [inhibitor, partial curve]

## CCCCN(CCCC)C(C(N)=O)c1ccc(OC)cc1 (configuration not stated)
[12]
  Potency: inconclusive [cytotoxic, single point]
[5]
  Potency: inactive
UISO
  Potency: inactive
WaGa
  Potency: inactive
SKOV3
  Potency: inconclusive [cytotoxic, single point]

## O=C(CCCCC(=O)Nc1c(I)cc(I)c(C(=O)O)c1I)Nc1c(I)cc(I)c(C(=O)O)c1I
[9]
  Potency: inactive
[4]
  Potency: inactive
UISO
  Potency: inactive
CAOV3
  Potency: inactive

## CCCCC1=NC2(CCCC2)C(=O)N1Cc1ccc(-c2ccccc2-c2nn[nH]n2)cc1
[12]
  Potency: inactive
UISO
  Potency: inactive
WaGa
  Potency: inactive
SKOV3
  Potency: inconclusive [rising, partial curve]
W2
  Potency: inconclusive [inhibitor, single point]

## CN(C)CCCOC1(Cc2ccccc2)CCCCCC1
[12]
  Potency: inconclusive [cytotoxic, partial curve, poor fit]
[2]
  Potency: inconclusive [inhibitor, partial curve, poor fit]
UISO
  Potency: inactive
SKOV3
  Potency: inconclusive [rising, full curve]

## CC(C)(C)NCC(O)COc1cccc2c1CCC(=O)N2 (configuration not stated)
[11]
  Potency: inactive
[2]
  Potency: inactive
[3]
  Potency: inactive
UISO
  Potency: inactive
WaGa
  Potency: inactive
[13]
  Potency: inconclusive [inhibitor, partial curve]

## CCN(CC)CCNC(=O)c1cc(S(C)(=O)=O)ccc1OC
[11]
  Potency: inactive
[8]
  Potency: inactive
[10]
  Potency: inactive
[2]
  Potency: inconclusive [inhibitor, full curve, poor fit] and inactive
[3]
  Potency: inactive
[4]
  Potency: inconclusive [inhibitor, single point]
[5]
  Potency: inactive
UISO
  Potency: inactive
[13]
  Potency: inconclusive [inhibitor, partial curve, poor fit]
DIV17
  Potency: inconclusive [inhibitor, single point]
W2
  Potency: inconclusive [inhibitor, partial curve, poor fit]

## Cc1cn2cc(C(=O)N(C)CCO)cc(N[C@@H]3CCOc4cccc(C)c43)c2n1
[10]
  Potency: inconclusive [cytotoxic, single point]
[12]
  Potency: inactive
UISO
  Potency: inconclusive [inhibitor, single point]
WaGa
  Potency: inactive
